The supplement of paper PMC8728848
The other results are listed elsewhere or left out.

Key:
Assay in all cases: glycan array binding signal (z-score within array); higher = stronger binding
Details in all cases: glycan notation: IUPAC condensed, linker removed
Fuc(a1-2)Gal = biological target: Fuc(a1-2)Gal
In short: (§1)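 The Consortium for Functional Glycomics database supplied 3228 glycan arrays, of which those lacking an available protein sequence were dropped. The binding signal, a within-array Z-score, was averaged across arrays of the same protein sequence and across linkers. Negative scores can be read as non-binding.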

Fuc(a1-2)Gal(b1-3)GalNAc = biological target: Fuc(a1-2)Gal(b1-3)GalNAc
In short: as §1

[1] = biological target: Fuc(a1-2)Gal(b1-3)GalNAc(a1-3)[Fuc(a1-2)]Gal(b1-4)Glc
In short: as §1

[2] = biological target: Fuc(a1-2)Gal(b1-3)GalNAc(a1-3)[Fuc(a1-2)]Gal(b1-4)GlcNAc
In short: as §1

[3] = biological target: Fuc(a1-2)Gal(b1-3)GalNAc(b1-3)Gal
In short: as §1

[4] = biological target: Fuc(a1-2)Gal(b1-3)GalNAc(b1-3)Gal(a1-4)Gal(b1-4)Glc
In short: as §1

[5] = biological target: Fuc(a1-2)Gal(b1-3)GalNAc(b1-4)[Neu5Ac(a2-3)]Gal(b1-4)Glc
In short: as §1

Fuc(a1-2)Gal(b1-3)GlcNAc = biological target: Fuc(a1-2)Gal(b1-3)GlcNAc
In short: as §1

[6] = biological target: Fuc(a1-2)Gal(b1-3)GlcNAc(b1-2)Man(a1-3)[Fuc(a1-2)Gal(b1-3)GlcNAc(b1-2)Man(a1-6)]Man(b1-4)GlcNAc(b1-4)GlcNAc
In short: as §1

[7] = biological target: Fuc(a1-2)Gal(b1-3)GlcNAc(b1-2)Man(a1-3)[Fuc(a1-2)Gal(b1-3)GlcNAc(b1-2)Man(a1-6)]Man(b1-4)GlcNAc(b1-4)[Fuc(a1-6)]GlcNAc
In short: as §1

[8] = biological target: Fuc(a1-2)Gal(b1-3)GlcNAc(b1-3)Gal(b1-4)Glc
In short: as §1

[9] = biological target: Fuc(a1-2)Gal(b1-3)GlcNAc(b1-3)GalNAc
In short: as §1

[10] = biological target: Fuc(a1-2)Gal(b1-3)GlcNAc(b1-3)[Fuc(a1-2)Gal(b1-3)GlcNAc(b1-6)]GalNAc
In short: as §1

[11] = biological target: Fuc(a1-2)Gal(b1-3)GlcNAc(b1-3)[Gal(b1-4)GlcNAc(b1-6)]Gal(b1-4)Glc
In short: as §1

[12] = biological target: Fuc(a1-2)Gal(b1-3)GlcNAc(b1-3)[Neu5Ac(a2-6)Gal(b1-4)GlcNAc(b1-6)]Gal(b1-4)Glc
In short: as §1

[13] = biological target: Fuc(a1-2)Gal(b1-3)GlcNAc6S
In short: as §1

[14] = biological target: Fuc(a1-2)Gal(b1-3)[Fuc(a1-4)]GlcNAc
In short: as §1

[15] = biological target: Fuc(a1-2)Gal(b1-3)[Fuc(a1-4)]GlcNAc(b1-2)Man(a1-3)[Fuc(a1-2)Gal(b1-3)[Fuc(a1-4)]GlcNAc(b1-2)Man(a1-3)]Man(b1-4)GlcNAc(b1-4)GlcNAc
In short: as §1

[16] = biological target: Fuc(a1-2)Gal(b1-3)[Fuc(a1-4)]GlcNAc(b1-2)Man(a1-3)[Fuc(a1-2)Gal(b1-3)[Fuc(a1-4)]GlcNAc(b1-2)Man(a1-6)]Man(b1-4)GlcNAc(b1-4)[Fuc(a1-6)]GlcNAc(b1-4)[Fuc(a1-6)]GlcNAc
In short: as §1

[17] = biological target: Fuc(a1-2)Gal(b1-3)[Fuc(a1-4)]GlcNAc(b1-3)[Fuc(a1-3)[Gal(b1-4)]GlcNAc(b1-6)]Gal(b1-4)Glc
In short: as §1

[18] = biological target: Fuc(a1-2)Gal(b1-3)[Fuc(a1-4)]GlcNAc(b1-3)[Gal(b1-4)GlcNAc(b1-6)]Gal(b1-4)Glc
In short: as §1

Fuc(a1-2)Gal(b1-4)Glc = biological target: Fuc(a1-2)Gal(b1-4)Glc
In short: as §1

Fuc(a1-2)Gal(b1-4)Glc6S = biological target: Fuc(a1-2)Gal(b1-4)Glc6S
In short: as §1

Fuc(a1-2)Gal(b1-4)GlcNAc = biological target: Fuc(a1-2)Gal(b1-4)GlcNAc
In short: as §1

[19] = biological target: Fuc(a1-2)Gal(b1-4)GlcNAc(b1-2)Man
In short: as §1

[20] = biological target: Fuc(a1-2)Gal(b1-4)GlcNAc(b1-2)Man(a1-3)[Fuc(a1-2)Gal(b1-4)GlcNAc(b1-2)Man(a1-6)]Man(b1-4)GlcNAc(b1-4)GlcNAc
In short: as §1

[21] = biological target: Fuc(a1-2)Gal(b1-4)GlcNAc(b1-2)Man(a1-3)[Fuc(a1-2)Gal(b1-4)GlcNAc(b1-2)Man(a1-6)]Man(b1-4)GlcNAc(b1-4)[Fuc(a1-6)]GlcNAc
In short: as §1

[22] = biological target: Fuc(a1-2)Gal(b1-4)GlcNAc(b1-2)[Fuc(a1-2)Gal(b1-4)GlcNAc(b1-4)]Man(a1-3)[Fuc(a1-2)Gal(b1-4)GlcNAc(b1-2)Man(a1-6)]Man(b1-4)GlcNAc(b1-4)GlcNAc
In short: as §1

[23] = biological target: Fuc(a1-2)Gal(b1-4)GlcNAc(b1-3)Gal(b1-4)GlcNAc
In short: as §1

[24] = biological target: Fuc(a1-2)Gal(b1-4)GlcNAc(b1-3)Gal(b1-4)GlcNAc(b1-2)Man(a1-3)[Fuc(a1-2)Gal(b1-4)GlcNAc(b1-3)Gal(b1-4)GlcNAc(b1-2)Man(a1-6)]Man(b1-4)GlcNAc(b1-4)GlcNAc
In short: as §1

B1: GS7807H-bfa-490-18-490 (Bacteroides fragilis) (protein)
chain: GNLEEMNIDPDNATQTHPKLLLTQICMNAFKRGTDGMYATKKVIQADGESADQYYKWTRGSFGYYDNLRNVQKMGEEAERVNAPVYTALTKFFRAYYFYELTLRFGDIPYSQALKGEKEEIYTPEYDAQEDVFAGILQELREADEILANDASVIDGDIIYNGNSTQWRKLINSFRLKVLMTLSNHTTVGNINIASEFKNIATNSPLMNSLADNGQLVYLDQQGNRYPQFNAQWSGYYMDDTFIQRMRERRDPRLFIFSAQTNKGKTEGKPIDDFSSYEGGDPAAPYSDAIIKVSEGTISPINDRFRTDPIVEPTMLMGYAELQQILAEAVVRGWISGNAQTYYEKGIRASFSFYETHAKDYAGYLNENAVAQYLKEPLVDFTQASGTEEQIERIIMQKYLVTFYQGNWDSFYEQLRTGYPDFRRPAGTEIPKRWMYPQGEYDNNGTNVETAITRQFGAGNDKINQATWWQKKS
For B1, the “glycan array binding signal (z-score)” value (Fuc(a1-2)Gal) was -0.166, the “glycan array binding signal (z-score)” value (Fuc(a1-2)Gal(b1-3)GalNAc) was -0.306 and the “glycan array binding signal (z-score)” value [1] was -0.741. For the same binder, the “glycan array binding signal (z-score)” value [2] was -0.548, the “glycan array binding signal (z-score)” value [3] was -0.782 and the “glycan array binding signal (z-score)” value [4] was -0.187. The “glycan array binding signal (z-score)” value [5] was -0.424, the “glycan array binding signal (z-score)” value (Fuc(a1-2)Gal(b1-3)GlcNAc) was -0.457 and the “glycan array binding signal (z-score)” value [6] was 0.846. For the same binder, the “glycan array binding signal (z-score)” value [7] was 0.262, the “glycan array binding signal (z-score)” value [8] was -0.68 and the “glycan array binding signal (z-score)” value [9] was -0.079. For the same binder, the “glycan array binding signal (z-score)” value [10] was 0.31, the “glycan array binding signal (z-score)” value [11] was 0.203 and the “glycan array binding signal (z-score)” value [12] was -0.326. For the same binder, the “glycan array binding signal (z-score)” value [13] was 0.079, the “glycan array binding signal (z-score)” value [14] was -0.824 and the “glycan array binding signal (z-score)” value [15] was -0.077. For the same binder, the “glycan array binding signal (z-score)” value [16] was -0.205, the “glycan array binding signal (z-score)” value [17] was -0.223 and the “glycan array binding signal (z-score)” value [18] was -0.829. For the same binder, the “glycan array binding signal (z-score)” value (Fuc(a1-2)Gal(b1-4)Glc) was -0.058, the “glycan array binding signal (z-score)” value (Fuc(a1-2)Gal(b1-4)Glc6S) was -0.448 and the “glycan array binding signal (z-score)” value (Fuc(a1-2)Gal(b1-4)GlcNAc) was -0.024. For the same binder, the “glycan array binding signal (z-score)” value [19] was 0.435, the “glycan array binding signal (z-score)” value [20] was -0.163 and the “glycan array binding signal (z-score)” value [21] was 2.33. The “glycan array binding signal (z-score)” value [22] was 0.114, the “glycan array binding signal (z-score)” value [23] was -0.786 and the “glycan array binding signal (z-score)” value [24] was 0.121.
